In the supplement of paper PMC4967469:
The IC50 comes from the fitted curve, where viability falls to half of the control; a fit beyond the top or the lowest dose is shown as a bound at that dose. The AUC spans the tested range (256-fold, ending at the top dose) of the same fit; the more sensitive the line, the further below 1. For part of these data: Where the top dose is marked as inferred, it was derived from the fitted curves, not read from the paper. For part of these data: Where an entry number is given, a second screen of the drug exists; the two often differ.

Experiments:
Assay in all cases: Viability of human cancer cell lines after 72 h of drug (GDSC screen)
YM155 = compound: COCC[n+]1c2c(n(Cc3cnccn3)c1C)C(=O)c1ccccc1C2=O [YM155]; conditions: top dose 5.12 µM
Protocol: (§1)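 Human cancer cell lines in 384-well plates, medium with 10% serum, drug for 72 h over a 256-fold dose range (nine 2-fold or five 4-fold steps up to the top dose). Adherent lines were fixed and stained with the nucleic acid dye Syto60, suspension lines read with resazurin; signal relative to control wells, capped at 0 and 100%. One two-parameter sigmoid per drug and line, fitted in a mixed model over all curves with the slope shared within a line.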

SB-715992 = compound: Cc1ccc(C(=O)N(CCCN)[C@@H](c2nc3cc(Cl)ccc3c(=O)n2Cc2ccccc2)C(C)C)cc1 [SB-715992]; conditions: top dose 0.128 µM; top dose inferred
Protocol: as §1

NSC-207895 = compound: CN1CCN(c2ccc([N+](=O)[O-])c3no[n+]([O-])c23)CC1 [NSC-207895]; conditions: top dose 20 µM; top dose inferred
Protocol: as §1

AMG-706 = compound: CC1(C)CNc2cc(NC(=O)c3cccnc3NCc3ccncc3)ccc21 [AMG-706]; conditions: top dose 2 µM; top dose inferred
Protocol: as §1

OSI-906 = compound: C[C@]1(O)C[C@@H](c2nc(-c3ccc4ccc(-c5ccccc5)nc4c3)c3c(N)nccn32)C1 [OSI-906]; conditions: top dose 2.56 µM; top dose inferred
Protocol: as §1

Belinostat = compound: O=C(/C=C/c1cccc(S(=O)(=O)Nc2ccccc2)c1)NO [Belinostat]; conditions: top dose 20 µM; top dose inferred
Protocol: as §1

FTI-277 = compound: COC(=O)[C@H](CCSC)NC(=O)c1ccc(NC[C@@H](N)CS)cc1-c1ccccc1 [FTI-277]; conditions: top dose 1.024 µM; top dose inferred
Protocol: as §1

JNK Inhibitor VIII = compound: CCOc1nc(NC(=O)Cc2cc(OC)ccc2OC)cc(N)c1C#N [JNK Inhibitor VIII]; conditions: top dose 10 µM; top dose inferred
Protocol: as §1

Docetaxel = compound: CC(=O)O[C@@]12CO[C@@H]1C[C@H](O)[C@@]1(C)C(=O)[C@H](O)C3=C(C)[C@@H](OC(=O)[C@H](O)[C@@H](NC(=O)OC(C)(C)C)c4ccccc4)C[C@@](O)([C@@H](OC(=O)c4ccccc4)[C@H]21)C3(C)C [Docetaxel]; conditions: top dose 0.0125 µM
Protocol: as §1

JQ1 = compound: Cc1sc2c(c1C)C(c1ccc(Cl)cc1)=N[C@@H](CC(=O)OC(C)(C)C)c1nnc(C)n1-2 [JQ1]
Protocol: as §1

JNJ-26854165 = compound: c1ccc2c(CCNc3ccc(Nc4ccncc4)cc3)c[nH]c2c1 [JNJ-26854165]; conditions: top dose 10 µM
Protocol: as §1

[1] = top dose 1 µM, screen: GDSC drug entry 1218, top dose inferred
[2] = top dose 2.56 µM, screen: GDSC drug entry 163

| Cell Line | AUC (YM155) | IC50 (YM155) [nM] | AUC (SB-715992) | IC50 (SB-715992) [nM] | AUC (NSC-207895) | IC50 (NSC-207895) [nM] | AUC (AMG-706) | IC50 (AMG-706) [nM] | AUC (OSI-906) | IC50 (OSI-906) [nM] | AUC (Belinostat) | IC50 (Belinostat) [nM] | AUC (FTI-277) | IC50 (FTI-277) [nM] | AUC (JNK Inhibitor VIII) | IC50 (JNK Inhibitor VIII) [nM] | AUC (Docetaxel) | IC50 (Docetaxel) [nM] | AUC (JQ1; [1]) | IC50 (JQ1; [1]) [nM] | AUC (JQ1; [2]) | IC50 (JQ1; [2]) [nM] | AUC (JNJ-26854165) | IC50 (JNJ-26854165) [nM] |
| --- | --- | --- | --- | --- | --- | --- | --- | --- | --- | --- | --- | --- | --- | --- | --- | --- | --- | --- | --- | --- | --- | --- | --- | --- |
| OE21 (oesophagus, adherent) | 0.19 | 25.4 | 0.973 | > 128 | 0.974 | > 20000 | 0.958 | > 2000 | 0.857 | > 2560 | 0.576 | 2170 | 0.948 | > 1020 | 0.887 | > 10000 | 0.604 | 1.68 | 0.931 | > 1000 | 0.538 | 212 | 0.778 | 5690 |
| OSC-20 (head and neck, adherent) | 0.036 | < 20 | 0.79 | 69.2 | 0.87 | > 20000 | 0.973 | > 2000 | 0.983 | > 2560 | 0.426 | 754 | 0.975 | > 1020 | 0.964 | > 10000 | 0.725 | 3.9 | 0.972 | > 1000 | 0.781 | 1280 | 0.839 | 8770 |
| OV-90 (ovary, adherent) | 0.181 | 25.3 | 0.907 | > 128 | 0.981 | > 20000 | 0.976 | > 2000 | 0.878 | > 2560 | 0.686 | 4820 | 0.965 | > 1020 | 0.98 | > 10000 | 0.813 | 9.23 | 0.975 | > 1000 | 0.795 | 1590 | 0.934 | > 10000 |
| OVCAR-5 (ovary, adherent) | 0.09 | < 20 | 0.792 | 71.4 | 0.982 | > 20000 | 0.91 | > 2000 | 0.816 | 1790 | 0.382 | 553 | 0.971 | > 1020 | 0.937 | > 10000 | 0.657 | 2.35 | 0.969 | > 1000 | 0.756 | 1040 | 0.873 | > 10000 |
| OVCAR-8 (ovary, adherent) | 0.023 | < 20 | 0.754 | 39.1 | 0.954 | > 20000 | 0.986 | > 2000 | 0.974 | > 2560 | 0.22 | 213 | 0.989 | > 1020 | 0.989 | > 10000 | 0.745 | 3.59 | 0.987 | > 1000 | 0.687 | 500 | 0.789 | 3910 |
| OVISE (ovary, adherent) | 0.061 | < 20 | 0.87 | > 128 | 0.906 | > 20000 | 0.973 | > 2000 | 0.962 | > 2560 | 0.522 | 1460 | 0.948 | > 1020 | 0.975 | > 10000 | 0.731 | 4.47 | 0.968 | > 1000 | 0.69 | 657 | 0.893 | > 10000 |
| OVTOKO (ovary, adherent) | 0.597 | 637 | 0.916 | > 128 | 0.962 | > 20000 | 0.919 | > 2000 | 0.896 | > 2560 | 0.528 | 1520 | 0.906 | > 1020 | 0.791 | 5890 | 0.882 | > 12.5 | 0.953 | > 1000 | 0.323 | 44.4 | 0.791 | 5920 |
| P12-ICHIKAWA (T-cell lymphoblastic leukaemia, suspension) | 0.102 | 26.6 | 0.549 | 10.6 | 0.862 | 11100 | 0.993 | > 2000 | 0.994 | > 2560 | 0.133 | 135 | 0.993 | > 1020 | 0.993 | > 10000 | 0.99 | > 12.5 | 0.994 | > 1000 | 0.757 | 708 | 0.967 | > 10000 |
| PANC-02-03 (pancreas, adherent) | 0.087 | < 20 | 0.927 | > 128 | 0.981 | > 20000 | 0.915 | > 2000 | 0.787 | 1350 | 0.361 | 475 | 0.944 | > 1020 | 0.948 | > 10000 | 0.713 | 3.56 | 0.979 | > 1000 | 0.706 | 692 | 0.904 | > 10000 |
| PANC-04-03 (pancreas, adherent) | 0.205 | 23.8 | 0.961 | > 128 | 0.978 | > 20000 | 0.92 | > 2000 | 0.885 | > 2560 | 0.862 | > 20000 | 0.912 | > 1020 | 0.977 | > 10000 | 0.855 | > 12.5 | 0.974 | > 1000 | 0.8 | 2280 | 0.888 | > 10000 |
| PCI-4B (head and neck, adherent) | 0.022 | < 20 | 0.645 | 19.6 | 0.815 | 10200 | 0.977 | > 2000 | 0.987 | > 2560 | 0.311 | 381 | 0.94 | > 1020 | 0.96 | > 10000 | 0.381 | 0.374 | 0.976 | > 1000 | 0.564 | 238 | 0.788 | 4120 |
